The experiment has as its system cortisol synthesis by H295R adrenocortical cells. Conditions: read-out: half-maximal inhibitory concentration (IC50) for cortisol synthesis, forskolin-stimulated, 48 h.

1 substance from patent US9187421B2, “Etomidate analogues that do not inhibit adrenocortical steroid synthesis” (THE GENERAL HOSPITAL CORPORATION, priority 2009, dated 2015) can be followed below.

For “(R)-1-(1-phenylethyl)-1H-pyrrole-2-carboxylate [carboetomidate]”, the IC50 stood at 2.6 ± 1.5 µM.
